From PubChem BioAssay (NCATS)
Results filed as inconclusive are left out. The call rests on the fitted dose curve; in most records, active means well fitted curve in the direction sought with a large enough effect; inconclusive means small, poorly fitted or top-dose-only effect, or another doubt; inactive means no such curve, though single readings can be large; an effect the other way counts as inactive or inconclusive. A structure can be active in one record and inactive in another. Not every entry of the source has a single result; some have several. The list is limited to them. An entry can have further records. Results that share an entry repeat one measurement across runs, samples, wells, individuals or studies. Records carry a tag for their origin. The letters are not those of the source and start again with each entry.

experiment: qHTS of pediatric cancer cell lines to identify multiple opportunities for drug repurposing: Primary screen for TC32 cells (AID 1347089); conditions: TC32 Ewing sarcoma viability, CellTiter-Glo luminescence, 48 h; series mostly up to 45.8 µM; further: nearly all actives have a fitted effect of over 60% in size
Procedure, shortened: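 Measured quantity: luminescence from CellTiter-Glo, reflecting metabolically active TC32 cells following 48 h of compound. Curves came straight from multi-point titrations, with 8 or 11 points in primary and 11 in confirmatory screening.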
Potency means the concentration at half of the fitted maximal effect.

Row | SMILES | Potency
1 | CN(C)CCOC(c1ccccc1)c1ccccc1 | active: 8.29 µM [sample A] and inactive [sample B]
2 | CC#C[C@]1(O)CC[C@H]2[C@@H]3CCC4=CC(=O)CCC4=C3[C@@H](c3ccc(N(C)C)cc3)C[C@@]21C | inactive [sample A] and active: 20.8 µM [sample B]
3 | NC(=O)NO | inactive [sample A] and active: 20.8 µM [sample B]

experiment: qHTS of pediatric cancer cell lines to identify multiple opportunities for drug repurposing: Primary screen for DAOY cells (AID 1347090); conditions: DAOY medulloblastoma viability, CellTiter-Glo luminescence, 48 h; series mostly up to 46 µM; further: nearly all actives have a fitted effect of over 55% in size
Procedure, shortened: (§1)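 Eight- or eleven-point concentration series, 48 h treatment at 37 degrees C in growth media; readout CellTiter-Glo luminescence. Potency and efficacy were taken from the concentration-response curves.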

Row | SMILES | Potency
4 | CC12CC3CC(C)(C1)CC(N)(C3)C2 | active: 23.5 µM [sample A] and inactive [sample B]
5 | COc1ccc2c(c1)c(CC(=O)O)c(C)n2C(=O)c1ccc(Cl)cc1 | inactive [sample A] and active: 18.7 µM [sample B]
6 | OCCN(CCO)c1nc(N2CCCCC2)c2nc(N(CCO)CCO)nc(N3CCCCC3)c2n1 | active: 29.6 µM [sample A] and inactive [sample B]
7 | CN(C)CCCN1c2ccccc2CCc2ccc(Cl)cc21 | active: 372 nM [sample A] and inactive [sample B]
8 | CN1CCC(=C2c3ccccc3CC(=O)c3sccc32)CC1 | active: 18.7 µM [sample A] and inactive [sample B]
9 | CCC1(c2ccccc2)C(=O)NCNC1=O | active: 4.69 µM [sample A] and inactive [sample B]
10 | CC(C)NCC(O)c1ccc(O)c(O)c1 (stereo not drawn) | active: 3.72 µM [sample A] and inactive [sample B]
11 | Cc1cn([C@H]2C=C[C@@H](CO)O2)c(=O)[nH]c1=O | active: 42.9 µM [sample A] and inactive [sample B]

experiment: qHTS of pediatric cancer cell lines to identify multiple opportunities for drug repurposing: Primary screen for SJ-GBM2 cells (AID 1347091); conditions: SJ-GBM2 viability, CellTiter-Glo luminescence, 48 h; series mostly up to 46 µM
Procedure, shortened: as §1

Row | SMILES | Potency
12 | CC(C)(Oc1ccc(C2CC2(Cl)Cl)cc1)C(=O)O (stereo not drawn) | active: 10.8 µM [sample A] and inactive [sample B]
13 | Cn1cnc2c1c(=O)[nH]c(=O)n2C | inactive [sample A] and active: 13.2 µM [sample B]
14 | Nc1nc2c(ncn2COC(CO)CO)c(=O)[nH]1 | active: 5.26 µM [sample A] and inactive [sample B]
15 | C[C@@H]1CC(=O)NN=C1c1ccc(NN=C(C#N)C#N)cc1 | inactive [sample A] and inactive [sample B] and active: 23.5 µM [sample C]
16 | CC(C)NCC(O)c1ccc(O)c(O)c1 (stereo not drawn) | active: 11.8 µM [sample A] and inactive [sample B]
17 | NC(=O)NO | inactive [sample A] and active: 526 nM [sample B]
18 | CC(C)C(=O)Nc1ccc([N+](=O)[O-])c(C(F)(F)F)c1 | inactive [sample A] and active: 590 nM [sample B]
